Measured values taken from paper PMC3936715, “Structural and functional analysis of the three MIF4G domains of nonsense-mediated decay factor UPF2” (Nucleic Acids Research, 2013).
These are yes or no findings as the source states them, for the method shown. For some assays here: In cells and extracts the contact can be indirect. Some entries that bind do so weakly or less than the wild type.

Chains of the proteins cited; added tags and fusions are not shown.
UniProt Q96Q15: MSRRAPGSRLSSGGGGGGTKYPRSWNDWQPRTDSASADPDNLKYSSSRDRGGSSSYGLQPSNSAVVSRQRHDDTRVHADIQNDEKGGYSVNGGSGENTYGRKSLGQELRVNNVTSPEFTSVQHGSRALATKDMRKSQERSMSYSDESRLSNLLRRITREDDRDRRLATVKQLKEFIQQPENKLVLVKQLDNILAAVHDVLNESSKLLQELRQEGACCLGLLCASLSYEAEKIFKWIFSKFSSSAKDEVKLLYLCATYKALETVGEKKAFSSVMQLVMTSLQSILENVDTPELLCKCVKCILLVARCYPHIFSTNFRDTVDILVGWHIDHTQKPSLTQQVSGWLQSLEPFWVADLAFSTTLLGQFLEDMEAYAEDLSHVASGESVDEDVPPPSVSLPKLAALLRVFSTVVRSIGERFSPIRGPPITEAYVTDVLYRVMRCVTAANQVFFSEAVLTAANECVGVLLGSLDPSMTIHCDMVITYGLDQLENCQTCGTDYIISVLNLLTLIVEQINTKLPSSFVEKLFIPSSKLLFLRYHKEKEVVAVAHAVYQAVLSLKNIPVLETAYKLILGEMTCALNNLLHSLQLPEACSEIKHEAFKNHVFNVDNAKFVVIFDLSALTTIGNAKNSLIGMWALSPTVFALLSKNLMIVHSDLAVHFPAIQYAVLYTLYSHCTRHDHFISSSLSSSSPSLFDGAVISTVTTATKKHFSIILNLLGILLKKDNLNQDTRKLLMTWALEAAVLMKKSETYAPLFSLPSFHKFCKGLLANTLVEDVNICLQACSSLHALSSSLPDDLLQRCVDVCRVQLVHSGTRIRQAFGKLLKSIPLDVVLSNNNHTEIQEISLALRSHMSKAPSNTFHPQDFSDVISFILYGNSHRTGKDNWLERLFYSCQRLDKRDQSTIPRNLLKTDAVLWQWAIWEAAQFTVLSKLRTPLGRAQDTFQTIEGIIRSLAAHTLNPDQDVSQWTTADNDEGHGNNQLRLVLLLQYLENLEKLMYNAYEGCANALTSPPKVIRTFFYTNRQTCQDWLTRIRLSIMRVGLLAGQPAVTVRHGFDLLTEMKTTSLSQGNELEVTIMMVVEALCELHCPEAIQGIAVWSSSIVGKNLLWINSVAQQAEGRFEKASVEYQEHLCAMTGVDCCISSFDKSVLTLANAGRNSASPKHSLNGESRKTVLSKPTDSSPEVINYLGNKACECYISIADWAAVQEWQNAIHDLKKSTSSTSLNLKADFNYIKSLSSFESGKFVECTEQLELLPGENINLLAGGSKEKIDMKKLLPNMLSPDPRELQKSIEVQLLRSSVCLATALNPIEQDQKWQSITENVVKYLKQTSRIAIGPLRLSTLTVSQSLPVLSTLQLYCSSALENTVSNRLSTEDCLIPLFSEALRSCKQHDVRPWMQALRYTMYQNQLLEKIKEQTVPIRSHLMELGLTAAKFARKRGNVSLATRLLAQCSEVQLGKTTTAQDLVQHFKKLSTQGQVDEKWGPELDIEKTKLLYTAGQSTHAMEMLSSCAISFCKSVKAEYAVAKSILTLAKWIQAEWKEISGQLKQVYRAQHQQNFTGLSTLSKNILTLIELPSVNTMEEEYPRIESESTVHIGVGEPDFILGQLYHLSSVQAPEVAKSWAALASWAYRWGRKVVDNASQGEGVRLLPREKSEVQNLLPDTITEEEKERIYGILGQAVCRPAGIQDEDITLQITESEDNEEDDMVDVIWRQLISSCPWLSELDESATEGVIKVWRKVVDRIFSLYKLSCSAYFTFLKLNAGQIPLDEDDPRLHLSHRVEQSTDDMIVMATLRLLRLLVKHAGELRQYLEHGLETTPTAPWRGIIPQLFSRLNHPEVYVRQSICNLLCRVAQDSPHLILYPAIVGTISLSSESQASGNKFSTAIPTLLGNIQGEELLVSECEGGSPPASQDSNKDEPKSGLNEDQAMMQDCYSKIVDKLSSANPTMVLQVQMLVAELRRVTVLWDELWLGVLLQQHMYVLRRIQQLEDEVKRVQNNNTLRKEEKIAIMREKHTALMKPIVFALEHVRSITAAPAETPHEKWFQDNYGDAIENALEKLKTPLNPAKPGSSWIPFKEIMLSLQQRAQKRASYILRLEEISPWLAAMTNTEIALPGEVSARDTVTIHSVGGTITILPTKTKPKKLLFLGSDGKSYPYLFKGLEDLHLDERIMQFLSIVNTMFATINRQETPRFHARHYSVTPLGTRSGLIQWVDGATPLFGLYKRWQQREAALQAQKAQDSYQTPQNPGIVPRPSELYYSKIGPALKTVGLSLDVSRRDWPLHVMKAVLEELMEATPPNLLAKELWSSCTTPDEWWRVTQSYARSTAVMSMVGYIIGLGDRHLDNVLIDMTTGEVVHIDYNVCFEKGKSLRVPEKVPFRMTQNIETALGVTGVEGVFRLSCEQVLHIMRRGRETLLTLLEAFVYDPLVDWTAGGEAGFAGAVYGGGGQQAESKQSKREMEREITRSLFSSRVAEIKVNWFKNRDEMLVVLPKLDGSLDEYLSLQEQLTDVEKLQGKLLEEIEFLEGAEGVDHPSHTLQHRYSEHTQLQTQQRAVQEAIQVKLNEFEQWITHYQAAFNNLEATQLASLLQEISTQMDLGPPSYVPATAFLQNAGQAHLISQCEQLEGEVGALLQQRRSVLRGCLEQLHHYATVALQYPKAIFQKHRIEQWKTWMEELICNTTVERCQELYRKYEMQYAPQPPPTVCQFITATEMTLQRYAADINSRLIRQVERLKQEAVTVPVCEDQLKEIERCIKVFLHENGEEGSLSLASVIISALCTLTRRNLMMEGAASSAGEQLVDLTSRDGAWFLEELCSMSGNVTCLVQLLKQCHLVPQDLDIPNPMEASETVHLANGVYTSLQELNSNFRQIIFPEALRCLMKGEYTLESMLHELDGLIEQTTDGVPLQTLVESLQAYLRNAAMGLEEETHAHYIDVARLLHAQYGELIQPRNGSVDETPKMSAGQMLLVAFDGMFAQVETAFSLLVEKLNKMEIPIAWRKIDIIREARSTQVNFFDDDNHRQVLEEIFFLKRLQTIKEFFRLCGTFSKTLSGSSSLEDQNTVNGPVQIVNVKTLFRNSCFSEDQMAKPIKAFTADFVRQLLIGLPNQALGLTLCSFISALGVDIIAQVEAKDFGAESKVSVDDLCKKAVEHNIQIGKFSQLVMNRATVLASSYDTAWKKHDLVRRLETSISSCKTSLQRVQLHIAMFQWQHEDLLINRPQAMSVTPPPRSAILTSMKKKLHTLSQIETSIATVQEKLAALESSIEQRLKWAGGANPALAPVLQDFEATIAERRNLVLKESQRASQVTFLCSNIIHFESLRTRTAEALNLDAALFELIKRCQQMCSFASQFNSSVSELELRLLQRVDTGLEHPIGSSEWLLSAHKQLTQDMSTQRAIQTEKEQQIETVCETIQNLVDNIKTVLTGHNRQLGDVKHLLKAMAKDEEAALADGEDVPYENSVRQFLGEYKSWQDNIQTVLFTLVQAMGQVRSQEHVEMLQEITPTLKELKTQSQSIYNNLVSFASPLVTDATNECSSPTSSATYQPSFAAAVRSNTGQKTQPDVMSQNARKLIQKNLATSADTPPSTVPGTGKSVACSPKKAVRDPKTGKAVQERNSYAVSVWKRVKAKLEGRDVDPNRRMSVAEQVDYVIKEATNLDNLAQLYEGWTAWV

Assays:
[1] = target: SMG1 (full-length recombinant, wild-type, N-terminal SBP-tag) (UniProt Q96Q15); experiment: SPR; SMG1 immobilised on a streptavidin chip; each UPF2 construct injected at 10 nM; interaction profile; both purified
[2] = target: FLAG-tagged wild-type UPF2 (human) (UniProt Q9HAU5); experiment: co-IP; HeLa cells transfected with FLAG-tagged UPF2 plasmids; immunoprecipitation with FLAG beads; co-precipitated UPF1 and UPF3b detected by western blotting
[3] = target: FLAG-tagged UPF2 ΔN/M1 (lacking MIF4G-1 and the preceding N-terminal region, residues 1–455) (human) (UniProt Q9HAU5); experiment: as above
[4] = target: FLAG-tagged UPF2 ΔN/M1M2 (lacking MIF4G-1, MIF4G-2 and the preceding N-terminal region, residues 1–757) (human) (UniProt Q9HAU5); experiment: as above
[5] = target: FLAG-tagged UPF2 ΔM2 (lacking the core MIF4G-2 domain, residues 569–758) (human) (UniProt Q9HAU5); experiment: as above
[6] = target: FLAG-tagged UPF2 ΔM1 (lacking the core MIF4G-1 domain, residues 168–431) (human) (UniProt Q9HAU5); experiment: as above
[7] = target: SMG1 (full-length recombinant, wild-type, N-terminal SBP-tag) (UniProt Q96Q15); experiment: SPR; competition: SMG1 immobilised; MIF4G-3 at constant 50 nM injected with 0, 50, 250, 500 nM UPF3b RRM domain; both purified

binding [1]	binding [2]	binding [3]	binding [4]	binding [5]	binding [6]	binding [7]	Molecule
no binding (tested: 10 nM)	–	–	–	–	–	–	UPF2 MIF4G-1 domain (residues 121–486) (from UniProt Q9HAU5 121-486) (domain or fragment)
no binding (tested: 10 nM)	–	–	–	–	–	–	UPF2 MIF4G-2 domain (residues 455–757) (from UniProt Q9HAU5 455-757) (domain or fragment)
–	binds	binds	binds	binds	binds	–	UPF3b (endogenous, HeLa) (protein, UniProt Q9BZI7 1-483) MKEEKEHRPKEKRVTLLTPAGATGSGGGTSGDSSKGEDKQDRNKEKKEALSKVVIRRLPPTLTKEQLQEHLQPMPEHDYFEFFSNDTSLYPHMYARAYINFKNQEDIILFRDRFDGYVFLDNKGQEYPAIVEFAPFQKAAKKKTKKRDTKVGTIDDDPEYRKFLESYATDNEKMTSTPETLLEEIEAKNRELIAKKTTPLLSFLKNKQRMREEKREERRRREIERKRQREEERRKWKEEEKRKRKDIEKLKKIDRIPERDKLKDEPKIKVHRFLLQAVNQKNLLKKPEKGDEKELDKREKAKKLDKENLSDERASGQSCTLPKRSDSELKDEKPKRPEDESGRDYREREREYERDQERILRERERLKRQEEERRRQKERYEKEKTFKRKEEEMKKEKDTLRDKGKKAESTESIGSSEKTEKKEEVVKRDRIRNKDRPAMQLYQPGARSRNRLCPPDDSTKSGDSAAERKQESGISHRKEGGEE
binds	–	–	–	–	–	binds	UPF2 MIF4G-3 domain (residues 761–1054) (domain or fragment, human, UniProt Q9HAU5 761-1054, looked up, UPF2, human, Q9HAU5, MIF4G-3 construct, residues 761-1054; Limits are printed for the construct 'which we used as substrate in our assays'; also called MIF4G domain 3) EKTVKKKRPPLQEYVRKLLYKDLSKVTTEKVLRQMRKLPWQDQEVKDYVICCMINIWNVKYNSIHCVANLLAGLVLYQEDVGIHVVDGVLEDIRLGMEVNQPKFNQRRISSAKFLGELYNYRMVESAVIFRTLYSFTSFGVNPDGSPSSLDPPEHLFRIRLVCTILDTCGQYFDRGSSKRKLDCFLVYFQRYVWWKKSLEVWTKDHPFPIDIDYMISDTLELLRPKIKLCNSLEESIRQVQDLEREFLIKLGLVNDKDSKDSMTEGENLEEDEEEEEGGAETEEQSGNESEVNE
–	binds	binds	binds	binds	binds	–	UPF1 (endogenous, HeLa) (protein, UniProt Q92900 1-1129) MSVEAYGPSSQTLTFLDTEEAELLGADTQGSEFEFTDFTLPSQTQTPPGGPGGPGGGGAGGPGGAGAGAAAGQLDAQVGPEGILQNGAVDDSVAKTSQLLAELNFEEDEEDTYYTKDLPIHACSYCGIHDPACVVYCNTSKKWFCNGRGNTSGSHIVNHLVRAKCKEVTLHKDGPLGETVLECYNCGCRNVFLLGFIPAKADSVVVLLCRQPCASQSSLKDINWDSSQWQPLIQDRCFLSWLVKIPSEQEQLRARQITAQQINKLEELWKENPSATLEDLEKPGVDEEPQHVLLRYEDAYQYQNIFGPLVKLEADYDKKLKESQTQDNITVRWDLGLNKKRIAYFTLPKTDSGNEDLVIIWLRDMRLMQGDEICLRYKGDLAPLWKGIGHVIKVPDNYGDEIAIELRSSVGAPVEVTHNFQVDFVWKSTSFDRMQSALKTFAVDETSVSGYIYHKLLGHEVEDVIIKCQLPKRFTAQGLPDLNHSQVYAVKTVLQRPLSLIQGPPGTGKTVTSATIVYHLARQGNGPVLVCAPSNIAVDQLTEKIHQTGLKVVRLCAKSREAIDSPVSFLALHNQIRNMDSMPELQKLQQLKDETGELSSADEKRYRALKRTAERELLMNADVICCTCVGAGDPRLAKMQFRSILIDESTQATEPECMVPVVLGAKQLILVGDHCQLGPVVMCKKAAKAGLSQSLFERLVVLGIRPIRLQVQYRMHPALSAFPSNIFYEGSLQNGVTAADRVKKGFDFQWPQPDKPMFFYVTQGQEEIASSGTSYLNRTEAANVEKITTKLLKAGAKPDQIGIITPYEGQRSYLVQYMQFSGSLHTKLYQEVEIASVDAFQGREKDFIILSCVRANEHQGIGFLNDPRRLNVALTRARYGVIIVGNPKALSKQPLWNHLLNYYKEQKVLVEGPLNNLRESLMQFSKPRKLVNTINPGARFMTTAMYDAREAIIPGSVYDRSSQGRPSSMYFQTHDQIGMISAGPSHVAAMNIPIPFNLVMPPMPPPGYFGQANGPAAGRGTPKGKTGRGGRQKNRFGLPGPSQTNLPNSQASQDVASQPFSQGALTQGYISMSQPSQMSQPGLSQPELSQDSYLGDEFKSQIDVALSQDSTYQGERAYQHGGVTGLSQY
